According to the supplement of paper PMC12217912:
This is one part of the list. The full chains were built here from the parent and the listed change. Inactive controls read about 0.05.

B1: TEV protease; numbered along this chain (parent)
chain: MGESLFKGPRDYNPISSSICHLTNESDGHTTSLYGIGFGPFIITNKHLFRRNNGTLVVQSLHGVFKVKDTTTLQQHLVDGRDMIIIRMPKDFPPFPQKLKFREPQREERICLVTTNFQTKSMSSMVSDTSCTFPSGDGIFWKHWIQTKDGQCGSPLVSTRDGFIVGIHSASNFTNTNNYFTSVPKNFMELLTNQEAQQWVSGWRLNADSVLWGGHKVFMVKPEEPFQPVKEATQL

Variants of: B1
Assay: raw area under fraction-flipped curve 0-4 h after induction (AUC4h, not background-subtracted), DNA-recorder readout of cleavage of the substrate (dimensionless); higher = more cleavage of the substrate by the protease variant
Details: temperature: 34 °C; time window: 0-4 h after rhamnose induction
Protocol: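 In vivo DNA recorder in E. coli TOP10(DE3) ΔrhaA at 34 °C. Each TEVp single-site mutant (parent TEVp 0) is paired with a single-site variant of the 7-mer TEVs (canonical ENLYFQ|S). The substrate sits between flexible linkers in a Bxb1-sfGFP-TEVs-SsrA fusion, so cleavage stabilises Bxb1 and speeds flipping of a recombination array, read by NGS. The value is the raw area under the fraction-flipped curve over 0-4 h after rhamnose induction (AUC4h), with ≥20 reads per time point. It is not background-subtracted; inactive controls average about 0.047.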
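Note: Bxb1 expression induced with 0.2% (w/v) L-rhamnose at OD600 near 0.5, cultures sampled hourly, flipped fraction per protease–substrate barcode pair counted by paired-end Illumina sequencing.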

Variant: G80L
- area with substrate ENAYFQS: 0.0743
- area with substrate ENDYFQS: 0.0606
- area with substrate ENEYFQS: 0.0566
- area with substrate ENHYFQS: 0.0669
- area with substrate ENIYFQS: 0.116
- area with substrate ENMYFQS: 0.0766
- area with substrate ENPYFQS: 0.053
- area with substrate ENQYFQS: 0.0591
- area with substrate ENRYFQS: 0.0457
- area with substrate ENSYFQS: 0.0674
- area with substrate ENVYFQS: 0.0692
- area with substrate ENWYFQS: 0.0558

Variant: R81A
- area with substrate ENAYFQS: 0.0632
- area with substrate ENCYFQS: 0.0692
- area with substrate ENDYFQS: 0.0646
- area with substrate ENFYFQS: 0.0493
- area with substrate ENKYFQS: 0.0529
- area with substrate ENQYFQS: 0.0574
- area with substrate ENSYFQS: 0.0597
- area with substrate ENTYFQS: 0.0579

Variant: M83E
- area with substrate ENAYFQS: 0.0546
- area with substrate ENCYFQS: 0.0478
- area with substrate ENDYFQS: 0.0637
- area with substrate ENHYFQS: 0.063
- area with substrate ENNYFQS: 0.0596
- area with substrate ENPYFQS: 0.052
- area with substrate ENQYFQS: 0.0601
- area with substrate ENRYFQS: 0.0506
- area with substrate ENSYFQS: 0.0527
- area with substrate ENVYFQS: 0.0483
- area with substrate ENWYFQS: 0.0317

Variant: M83L
- area with substrate ENAYFQS: 0.0795
- area with substrate ENEYFQS: 0.0597
- area with substrate ENFYFQS: 0.0495
- area with substrate ENIYFQS: 0.109
- area with substrate ENNYFQS: 0.0687
- area with substrate ENQYFQS: 0.0815
- area with substrate ENTYFQS: 0.0575
- area with substrate ENVYFQS: 0.0682

Variant: M83R
- area with substrate ENAYFQS: 0.0454
- area with substrate ENDYFQS: 0.0477
- area with substrate ENEYFQS: 0.0389
- area with substrate ENPYFQS: 0.0478
- area with substrate ENQYFQS: 0.048
- area with substrate ENTYFQS: 0.0489

Variant: I84H
- area with substrate ENAYFQS: 0.053
- area with substrate ENCYFQS: 0.0483
- area with substrate ENDYFQS: 0.0516
- area with substrate ENEYFQS: 0.0854
- area with substrate ENFYFQS: 0.0515
- area with substrate ENGYFQS: 0.0506
- area with substrate ENKYFQS: 0.0561
- area with substrate ENNYFQS: 0.0522
- area with substrate ENPYFQS: 0.0653
- area with substrate ENQYFQS: 0.0539
- area with substrate ENRYFQS: 0.0332
- area with substrate ENSYFQS: 0.0539
- area with substrate ENVYFQS: 0.0514
- area with substrate ENWYFQS: 0.0532

Variant: I84V
- area with substrate ENAYFQS: 0.0659
- area with substrate ENDYFQS: 0.0527
- area with substrate ENEYFQS: 0.0527
- area with substrate ENHYFQS: 0.061
- area with substrate ENMYFQS: 0.0806
- area with substrate ENRYFQS: 0.0593
- area with substrate ENSYFQS: 0.0478
- area with substrate ENVYFQS: 0.0889
- area with substrate ENYYFQS: 0.0572

Variant: I85A
- area with substrate ENAYFQS: 0.0557
- area with substrate ENEYFQS: 0.0621
- area with substrate ENFYFQS: 0.112
- area with substrate ENNYFQS: 0.0665
- area with substrate ENPYFQS: 0.0592
- area with substrate ENSYFQS: 0.0168
- area with substrate ENVYFQS: 0.0626

Variant: I85H
- area with substrate ENAYFQS: 0.0259
- area with substrate ENCYFQS: 0.0614
- area with substrate ENDYFQS: 0.0487
- area with substrate ENEYFQS: 0.0407
- area with substrate ENFYFQS: 0.0339
- area with substrate ENHYFQS: 0.0579
- area with substrate ENIYFQS: 0.0569
- area with substrate ENMYFQS: 0.0588
- area with substrate ENNYFQS: 0.047
- area with substrate ENRYFQS: 0.0445
- area with substrate ENSYFQS: 0.0617
- area with substrate ENYYFQS: 0.0425

Variant: R87N
- area with substrate ENAYFQS: 0.0535

Variant: R87Q
- area with substrate ENAYFQS: 0.0696
- area with substrate ENDYFQS: 0.0504
- area with substrate ENHYFQS: 0.059
- area with substrate ENMYFQS: 0.0991
- area with substrate ENNYFQS: 0.0342
- area with substrate ENTYFQS: 0.118

Variant: R87T
- area with substrate ENAYFQS: 0.0521
- area with substrate ENDYFQS: 0.0617
- area with substrate ENFYFQS: 0.0568
- area with substrate ENGYFQS: 0.0732
- area with substrate ENIYFQS: 0.0722
- area with substrate ENNYFQS: 0.0713
- area with substrate ENRYFQS: 0.0905
- area with substrate ENSYFQS: 0.0532

Variant: P89A
- area with substrate ENAYFQS: 0.0744
- area with substrate ENDYFQS: 0.0801
- area with substrate ENEYFQS: 0.0517
- area with substrate ENHYFQS: 0.0606
- area with substrate ENQYFQS: 0.071
- area with substrate ENSYFQS: 0.0476

Variant: P89V
- area with substrate ENAYFQS: 0.0355
- area with substrate ENDYFQS: 0.0512
- area with substrate ENNYFQS: 0.0447
- area with substrate ENPYFQS: 0.0401
- area with substrate ENQYFQS: 0.0629
- area with substrate ENSYFQS: 0.05
- area with substrate ENVYFQS: 0.0602

Variant: K90A
- area with substrate ENAYFQS: 0.0696
- area with substrate ENEYFQS: 0.0617
- area with substrate ENHYFQS: 0.0707
- area with substrate ENTYFQS: 0.0428

Variant: D91M
- area with substrate ENAYFQS: 0.0232
- area with substrate ENNYFQS: 0.0628
- area with substrate ENRYFQS: 0.0593
- area with substrate ENSYFQS: 0.0641

Variant: D91S
- area with substrate ENAYFQS: 0.0682
- area with substrate ENEYFQS: 0.076
- area with substrate ENFYFQS: 0.053
- area with substrate ENNYFQS: 0.0615
- area with substrate ENQYFQS: 0.0503
- area with substrate ENRYFQS: 0.0643
- area with substrate ENSYFQS: 0.0412
- area with substrate ENVYFQS: 0.112
- area with substrate ENWYFQS: 0.0017
- area with substrate ENYYFQS: 0.0461

Variant: F92N
- area with substrate ENAYFQS: 0.0629
- area with substrate ENCYFQS: 0.0566
- area with substrate ENGYFQS: 0.0491
- area with substrate ENNYFQS: 0.0471
- area with substrate ENPYFQS: 0.0587
- area with substrate ENQYFQS: 0.0453
- area with substrate ENSYFQS: 0.0444
- area with substrate ENTYFQS: 0.0548
- area with substrate ENVYFQS: 0.0807
- area with substrate ENYYFQS: 0.0717

Variant: F92V
- area with substrate ENAYFQS: 0.0517
- area with substrate ENEYFQS: 0.0562
- area with substrate ENHYFQS: 0.0678
- area with substrate ENIYFQS: 0.124
- area with substrate ENPYFQS: 0.0617
- area with substrate ENQYFQS: 0.0589

Variant: P93C
- area with substrate ENAYFQS: 0.0456
- area with substrate ENEYFQS: 0.0455
- area with substrate ENFYFQS: 0.0499
- area with substrate ENMYFQS: 0.0861
- area with substrate ENQYFQS: 0.0695
- area with substrate ENSYFQS: 0.0676
- area with substrate ENVYFQS: 0.0691

Variant: P93L
- area with substrate ENAYFQS: 0.0793
- area with substrate ENDYFQS: 0.0527
- area with substrate ENEYFQS: 0.0677
- area with substrate ENFYFQS: 0.0471
- area with substrate ENGYFQS: 0.0596
- area with substrate ENKYFQS: 0.0614
- area with substrate ENMYFQS: 0.0582
- area with substrate ENSYFQS: 0.0501
- area with substrate ENVYFQS: 0.0591
